According to PubChem BioAssay AID624296 (National Center for Advancing Translational Sciences (NCATS), 2012):
Hit rate of the full screen: of about 350,000 compounds, about 9,900 (2.8%) were called active. The shares of active, inactive and inconclusive entries below differ from those in the screen. The call rests on the fitted dose curve; in most records, active means well fitted activation curve with a large enough effect; inconclusive means small, poorly fitted or top-dose-only effect; inactive means no such curve, though single readings can be large or run the other way. Potencies of inconclusive entries are left out as doubtful fits.
Potency means the concentration at half of the fitted maximal effect; tags describe the fitted curve by direction and shape.

Test: A quantitative high throughput screen for small molecules that induce DNA re-replication in MCF 10a normal breast cells. Further: nearly all actives have a fitted effect of over 50% in size.
Details: MCF 10A DNA re-replication, Hoechst nuclear intensity, 48 h; series mostly up to 46.1 µM
For C/C(CCN1CCc2nc(-c3ccccc3)c(-c3ccccc3)cc2C1)=N\O[C@H](C)c1cn([C@H](CO)Cc2ccccc2)nn1, the Potency was inconclusive [activator, single point]. With O=C(Nc1ccc(N2CCCCC2)c(S(=O)(=O)Nc2ccccc2Cl)c1)c1cccnc1 the Potency was active: 18.4 µM. In the case of Cc1ccc(C(=O)O)cc1NC(=S)NC(=O)c1ccc([N+](=O)[O-])cc1Cl, the Potency is reported as “inactive”. For O=C(c1ccc2snnc2c1)N1CCCCC1, the Potency was “inactive”. In the case of CN1CCN(c2ccccc2NC(=O)c2ccc([N+](=O)[O-])o2)CC1, the Potency is reported as active: 14.6 µM. For CCOC(=O)N1CCC(N(CCN(C)C)C(=S)Nc2ccc(Oc3ccccc3)cc2)CC1, the Potency was inconclusive [activator, partial curve, poor fit]. In the case of Cc1ccc(NC(=S)NNC(=O)c2ccccc2O)c(C)c1, the Potency is reported as inconclusive [activator, single point]. With CC(=O)C[C@H](O)CC(=O)[C@H]1OC(=O)CCCCCc2ccccc21 the Potency was inconclusive [activator, full curve, poor fit]. In the case of COC(=O)c1ccc(-n2c(C)cc(C(=O)COC(=O)CC3Sc4ccccc4NC3=O)c2C)cc1 (stereo not given), the Potency is reported as “inactive”. In the case of COc1ccccc1C1=CC(=O)C[C@H](c2ccc3c(c2)OCO3)C1, the Potency is reported as inconclusive [activator, single point]. With CCN(C(=O)COC(=O)c1cc2ccccc2cc1OC)c1c(N)n(Cc2ccccc2)c(=O)[nH]c1=O the Potency was “inactive”. For Cc1cccc2[nH]c3c(N4CC=C(c5ccc(F)cc5)CC4)ncnc3c12, the Potency was inconclusive [activator, single point]. For O/N=C(/c1ccc(F)cc1)C1CC1c1c(F)cccc1Cl (stereo not given), the Potency was inconclusive [activator, single point]. In the case of O=C(Nc1nnc(SCc2ccccc2)s1)c1cccc([N+](=O)[O-])c1, the Potency is reported as inconclusive [activator, partial curve, poor fit]. For CC1CCN(C(=O)COC(=O)c2ccc(N3CCCC3=O)cc2)CC1, the Potency was “inactive”. In the case of COc1ccccc1CN1C[C@@H]2C[C@@H](c3ccc(C)c(C)c3)N3CCC[C@@]23C1=O, the Potency is reported as “inactive”. In the case of Cc1onc(-c2ccccc2)c1C(=O)NNC(=S)NC(=O)c1ccc(F)cc1, the Potency is reported as inconclusive [activator, single point]. In the case of O=C(CSC(=S)N1CCSCC1)c1ccc(Cl)cc1, the Potency is reported as inconclusive [activator, partial curve, poor fit]. In the case of O=C(Nc1cccc(O)c1)C1CC(c2cccc(Br)c2)=NO1 (stereo not given), the Potency is reported as “inactive”. With O=C(Cc1ccc(Cl)cc1)NCCc1c[nH]c2ccccc12 the Potency was “inactive”. For Cc1cc(NC(=O)c2cccs2)n(-c2nc3ccccc3[nH]2)n1, the Potency was inconclusive [activator, single point]. In the case of O=C(c1cccc(S(=O)(=O)NCc2ccccc2)c1)N1CCN(c2ccccc2Cl)CC1, the Potency is reported as inconclusive [activator, partial curve, poor fit]. In the case of O=C(Nc1cccc(-n2cccn2)c1)C1CCCN(Cc2ccc(C#CCCO)cc2)C1 (stereo not given), the Potency is reported as inconclusive [activator, single point]. In the case of Cc1nn(C)cc1S(=O)(=O)N1CCCCC1C (stereo not given), the Potency is reported as “inactive”. In the case of CCC(Cc1ccccc1)NS(=O)(=O)c1csc(C(N)=O)c1 (stereo not given), the Potency is reported as inconclusive [activator, partial curve, poor fit]. With N#CC1C(=N)Cc2ccccc2-c2ccccc21 (stereo not given) the Potency was inconclusive [activator, single point]. For CNC(=O)c1cc(C(=O)c2ccccc2C(F)(F)F)c[nH]1, the Potency was inconclusive [activator, single point]. For c1ccc2cc(-c3cc4ccccn4c3)ccc2c1, the Potency was inconclusive [activator, partial curve, poor fit]. For CCOC(=O)N1CCN(S(=O)(=O)N2CCCC(C(=O)NCc3ccc(OC)cc3)C2)CC1 (stereo not given), the Potency was “inactive”. With O=C(C1CC(=O)N(c2ccccc2F)C1)N1CCOCC1 (stereo not given) the Potency was “inactive”. With Nc1cc(-c2ccc(OC(F)(F)F)cc2)nn1-c1ccc(Cl)c(Cl)c1 the Potency was inconclusive [activator, single point]. In the case of COc1ccc(OC)c(C2=NOC(C(=O)N3CCCc4ccccc43)C2)c1 (stereo not given), the Potency is reported as inconclusive [activator, partial curve, poor fit]. For CC1=CN(S(=O)(=O)c2ccc(C)cc2)C[C@@H]2[C@H]3CC[C@H](C3)[C@H]12, the Potency was inconclusive [activator, single point]. With Cc1ccn2cc(-c3cccc(NC(=O)CCC(=O)O)c3)nc2c1 the Potency was “inactive”. With C[C@H](NC(=O)Nc1ccccc1F)C(=O)O the Potency was inconclusive [activator, partial curve, poor fit]. In the case of CCCN(CC(=O)Nc1ccccc1OC)C(=O)c1cc(-c2cccs2)nn1-c1ccccc1, the Potency is reported as inconclusive [activator, single point]. With NS(=O)(=O)c1ccc(CCNCc2cc(Br)ccc2OCc2ccccc2)cc1 the Potency was inconclusive [activator, single point]. In the case of Cc1cccc(C)c1OC1(c2ccccc2)OC(=O)c2ccccc21 (stereo not given), the Potency is reported as inconclusive [activator, single point]. With Cn1nnnc1Sc1ccc([N+](=O)[O-])cc1Cl the Potency was inconclusive [activator, single point]. For CCCC(NCC(O)COc1ccc(-c2ccccc2)cc1)c1ccccc1 (stereo not given), the Potency was active: 4.11 µM. In the case of COc1ccc(C(=O)CC(=O)C(=O)Nc2ccc(Cl)cc2)cc1, the Potency is reported as “inactive”. In the case of CC(=O)Nc1cccc(NC(=O)CSc2nnc(NC(=O)C3CC3)s2)c1, the Potency is reported as “inactive”. In the case of CCOc1ccccc1C(=O)N/N=C/c1coc2ccc(C)cc2c1=O, the Potency is reported as inconclusive [activator, single point]. In the case of O=CNc1ccc2c3c(cccc13)-c1ccccc1-2, the Potency is reported as inconclusive [activator, partial curve, poor fit]. For O=C(Nc1ccccc1F)C(=Cc1sc(N2CCOCC2)nc1-c1ccccc1)C(=O)Nc1ccccc1F, the Potency was active: 3.26 µM. With Nc1ccccc1Sc1ccc(C(F)(F)F)cc1[N+](=O)[O-] the Potency was inconclusive [activator, single point]. For Cc1cc(N2CCOCC2)ccc1/C=C1\NC(=O)N(CC(=O)Nc2ccc(F)cc2)C1=O, the Potency was inconclusive [activator, single point]. With O=C(N/N=C/c1cc([N+](=O)[O-])cc(Br)c1O)C12CC3CCC(CC(C3)C1)C2 the Potency was inconclusive [activator, full curve, poor fit]. With CCCN(CC1CC1)C(=O)CSc1ncnc2sccc12 the Potency was inconclusive [activator, single point]. In the case of CCCOC(=O)c1ccc(Oc2c(-c3ccc(OCC)cc3O)n[nH]c2C)cc1, the Potency is reported as “inactive”. With COc1cccc(/C=N/n2c(SC)nnc2-c2ccccc2)c1O the Potency was inconclusive [activator, single point]. In the case of CN(C)c1ccc(P(=O)(OC2CCCCC2)C(O)c2ccccn2)cc1 (stereo not given), the Potency is reported as “inactive”. With Cc1ccc(/C=C/C(=O)c2c(C)cc(C)[nH]c2=O)cc1 the Potency was inconclusive [activator, partial curve, poor fit]. In the case of COc1cc(NC(=O)c2cccs2)ccc1NC(=O)c1cc2ccccc2o1, the Potency is reported as inconclusive [activator, full curve, poor fit]. With COC(=O)c1cc2c(ccn2-c2ccc(F)cc2)n1C(C)C the Potency was inconclusive [activator, partial curve]. In the case of C/C(=N\NC(=S)NC1CCCCC1)c1cccc(Br)c1, the Potency is reported as inconclusive [activator, partial curve]. For O=C(Nc1ccccc1C(=O)NCC1CCCO1)c1ccc(Cl)cc1 (stereo not given), the Potency was “inactive”. In the case of COc1cc(C(=O)OCC(=O)Nc2c(F)c(F)c(F)c(F)c2F)cc(OC)c1OC, the Potency is reported as “inactive”. In the case of CCCCOC(=O)CSC1=C(C#N)C(c2ccccc2OCC)C(C#N)C(=O)N1 (stereo not given), the Potency is reported as inconclusive [activator, partial curve, poor fit]. In the case of NC[C@H](Cc1ccccc1)NCCc1cc(C(F)(F)F)cc(C(F)(F)F)c1, the Potency is reported as inconclusive [activator, single point]. For Cc1cc(/C=N/NC(N)=S)c(C)n1-c1ccc(Cl)cc1, the Potency was active: 8.2 µM. In the case of Cc1cc(C(=O)OCC(=O)Nc2sc3c(c2C#N)CCC(C)C3)c2ccccc2n1 (stereo not given), the Potency is reported as inconclusive [activator, single point]. For C=CCN(CC=C)S(=O)(=O)c1ccc(C(=O)Nc2sc3c(c2C(N)=O)CCCCC3)cc1, the Potency was inconclusive [activator, partial curve, poor fit]. In the case of Cc1ccccc1C(=O)N/N=C/c1ccccn1, the Potency is reported as “inactive”. In the case of COc1cccc(CSc2nc(N)cc(N)n2)c1, the Potency is reported as “inactive”. With O=S(=O)(Nc1nc2ccccc2nc1Cl)c1cccc(C(F)(F)F)c1 the Potency was active: 16.4 µM. In the case of COc1cc(C2C=C(C34CC5CC(CC(C5)C3)C4)NC(=S)N2)cc(OC)c1OC (stereo not given), the Potency is reported as “inactive”. With C=C1CCC[C@]2(C)C[C@H]3OC(=O)C(CNCC(C)C)[C@H]3CC12 (stereo not given in full) the Potency was “inactive”. For Cc1cc(C(=O)Nc2cccc(-c3ccc(N4CCOCC4)nn3)c2)ccc1[N+](=O)[O-], the Potency was inconclusive [activator, single point]. For CC(Oc1ccccc1)C(=O)N1CCN=C1SCc1ccccc1F (stereo not given), the Potency was inconclusive [activator, partial curve, poor fit].
